# Data from PMC7819943, “Rice protein-binding microarrays: a tool to detect cis-acting elements near promoter regions in rice”.
# Some of the results follow.
# Target: T1, OsWOX13 (Oryza sativa, UniProt Q5QMM3 1-267)
# T1 sequence: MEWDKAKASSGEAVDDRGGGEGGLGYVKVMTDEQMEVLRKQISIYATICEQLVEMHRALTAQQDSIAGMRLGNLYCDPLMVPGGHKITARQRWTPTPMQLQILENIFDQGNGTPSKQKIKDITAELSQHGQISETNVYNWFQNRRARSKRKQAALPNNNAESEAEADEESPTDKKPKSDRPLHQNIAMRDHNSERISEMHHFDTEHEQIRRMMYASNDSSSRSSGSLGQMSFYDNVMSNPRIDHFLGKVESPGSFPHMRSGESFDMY
# Test: protein-binding microarray (RPBM); PBS, 2% BSA, 51.3 ng/ul salmon testes DNA, 50 uM zinc acetate, 200 nM TF, 25 C, 1 h; high values mean tight binding
# Conditions: protein: recombinant; tags: N-terminal polyhistidine and DsRed monomer fusion (pET32a); label: CyDye5-dUTP incorporated in the synthesized complementary strand; 3' TTTTT single-stranded linker to array surface; dsDNA, one strand shown
# Procedure, shortened: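 Transcription factors, each fused N-terminally to a polyhistidine tag and DsRed, were expressed in E. coli BL21-CodonPlus and purified on Ni–NTA. A custom Agilent array was made double-stranded by primer extension with Cy5-dUTP and blocked with 2% BSA. It was incubated with 200 nM protein in PBS, 2% BSA, salmon testes DNA and 50 µM zinc acetate at 25 °C for 1 h, then washed. The binding signal is per-feature fluorescence intensity (arbitrary units) read on an Axon 4000B scanner.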
row,Sequence,binding signal
1,GTGATTACTTGTACTAATTTGTAAACCGTGTGAGCGTCCGCGGAGTCACCTAGTGCAG,43100 fluorescence intensity (a.u.)
2,GCTTCATAGTCAATTTTCAACTAAACAGCCATGCTGCTTCCGGAGTCACCTAGTGCAG,4810 fluorescence intensity (a.u.)
3,AAACTTATAATTTTGGTGTGAAATAAACACATGCTAGTAGCGGAGTCACCTAGTGCAG,3190 fluorescence intensity (a.u.)
4,CGATTGATTGATTCTTGGTGCTCACTATCTCTAAATTGATCGGAGTCACCTAGTGCAG,59600 fluorescence intensity (a.u.)
5,TAGTTAATTGTATTATGGAACATCTAAGAAAAGTAGTTGTCGGAGTCACCTAGTGCAG,31500 fluorescence intensity (a.u.)
6,AATAATAAAGTAATTATAATTAGAGAAGGTGAATGACAAGCGGAGTCACCTAGTGCAG,26400 fluorescence intensity (a.u.)
7,AAATTTTGTGGTATTCTTTGATTGGAGAAAATGTTTGTTACGGAGTCACCTAGTGCAG,6140 fluorescence intensity (a.u.)
8,AATATACAAGTTTTGTGATTAAATTGTTATTAAACCGGTACGGAGTCACCTAGTGCAG,6190 fluorescence intensity (a.u.)
9,ACCCTTAATTTGTTCCTAATCACAATTGCCGAACGCAGCCCGGAGTCACCTAGTGCAG,49400 fluorescence intensity (a.u.)
10,TTAATCTTTGATTGTGCGTGTATGGAGTTCTGGATTAGGACGGAGTCACCTAGTGCAG,7330 fluorescence intensity (a.u.)
11,CACAATTCAATTACAGTCACAATTAGTGAGCCAAGAAAGACGGAGTCACCTAGTGCAG,20400 fluorescence intensity (a.u.)
12,AGAACCGAATTAATTTGGGGTTAAATAAATGACTAAGCAGCGGAGTCACCTAGTGCAG,10900 fluorescence intensity (a.u.)
13,TTTAAAATAGTTAATACTCAATTAATCACACGCTAAGGGCCGGAGTCACCTAGTGCAG,3460 fluorescence intensity (a.u.)
14,GAATCATCAATAATGATTTGTAATGCTGAATGTTTCGCTTCGGAGTCACCTAGTGCAG,15900 fluorescence intensity (a.u.)
15,CGGAAATAAATTTCAGTTAGTGGTTTTGTAGAGGGCCCACCGGAGTCACCTAGTGCAG,8680 fluorescence intensity (a.u.)
16,GTTAATTTTGTGAAATATGTTTGCTGGTTAGTGAATTGTACGGAGTCACCTAGTGCAG,12400 fluorescence intensity (a.u.)
17,ACTAGATTGGATATTTAGTTATGCTGTGTGTTCACCAACACGGAGTCACCTAGTGCAG,43000 fluorescence intensity (a.u.)
18,ACTCTAATGAAGACAAACTTTATATCAAACTTGTAGCCCTCGGAGTCACCTAGTGCAG,3760 fluorescence intensity (a.u.)
19,TCTATATACGGTTTAAATTTAAATTATCATGAACCATGCTCGGAGTCACCTAGTGCAG,4770 fluorescence intensity (a.u.)
20,TTGTGATCAAAATCAGACAAATTTGCTTTTGGATAAGAATCGGAGTCACCTAGTGCAG,6530 fluorescence intensity (a.u.)
21,AGTTCATGATTAGCTATAAGTGTTACAGTAACCTAGATATCGGAGTCACCTAGTGCAG,8250 fluorescence intensity (a.u.)
22,CGTTGATAGCTACCTGGATCTGGAGGACAAGGCAGTGGTGCGGAGTCACCTAGTGCAG,7930 fluorescence intensity (a.u.)
23,GTTTGCTCTATGATTTTATAATTTAAAATTATATTATATACGGAGTCACCTAGTGCAG,18000 fluorescence intensity (a.u.)
24,ACAAAATAACAATCAAACACGCTTTGGTTTTACACATATACGGAGTCACCTAGTGCAG,4520 fluorescence intensity (a.u.)
25,GATCCACCAATTTAAATGAAAATTAATGGTGAGATGCTTTCGGAGTCACCTAGTGCAG,8920 fluorescence intensity (a.u.)
26,TTTGATTTCTTGGAAGAAACCACTTATTGTACCAATGTTCCGGAGTCACCTAGTGCAG,8080 fluorescence intensity (a.u.)
27,TGAGGTTGATATATACTCTGATTTATTTATTCGTACACATCGGAGTCACCTAGTGCAG,3510 fluorescence intensity (a.u.)

row,Sequence,binding signal
1,TTTATCCAATCAGAATGTCTCGAATACATTAGTTATGGTGCGGAGTCACCTAGTGCAG,5350 fluorescence intensity (a.u.)
2,TTGATGAGGTTAATTTCTTTACAAAACCTAGTAGTCAATTCGGAGTCACCTAGTGCAG,8480 fluorescence intensity (a.u.)
3,CTTTCTGATCATAATTAAATATATCATTCTCCTGCACGTGCGGAGTCACCTAGTGCAG,15900 fluorescence intensity (a.u.)
4,CTTAATTGAGAGAGAGAGAGAGAGAGAGAGAGAGAGAGATCGGAGTCACCTAGTGCAG,4210 fluorescence intensity (a.u.)
5,CGCTAATATAATGTTCTAAGTGGCTCCTTTGACAAGCAATCGGAGTCACCTAGTGCAG,3800 fluorescence intensity (a.u.)
6,CTCTTCAAAGATTGTCCTTTGACAGATTTGGGAGAGGGTCCGGAGTCACCTAGTGCAG,3640 fluorescence intensity (a.u.)
7,ACTAATTAAGAGTCTCGATCAATCCTTTTCAGTAAATTATCGGAGTCACCTAGTGCAG,8920 fluorescence intensity (a.u.)
8,TTTCCTAATTGTATTTCTATATGGACTCGTTTATTCCAAACGGAGTCACCTAGTGCAG,13800 fluorescence intensity (a.u.)
9,CGACCTGAGCCAGAAATTTAATTGATATTTCTTCCTTCGTCGGAGTCACCTAGTGCAG,7400 fluorescence intensity (a.u.)
10,TTGTAATTGATTGTGGCCCATCAACTATTGCCATCACTGGCGGAGTCACCTAGTGCAG,64900 fluorescence intensity (a.u.)
11,ACTATAATGTAATTTGTACTATAGTGTAATTAAACTGTATCGGAGTCACCTAGTGCAG,14700 fluorescence intensity (a.u.)
12,AACGATGATTGAGCAAGGATCGAAAAGTATATCTTTCTATCGGAGTCACCTAGTGCAG,17700 fluorescence intensity (a.u.)
13,TTATAGTACTATTAATCAATTATTACTAAATGACGCCGATCGGAGTCACCTAGTGCAG,10200 fluorescence intensity (a.u.)
14,CTTTTAAATGTAGTATAATTATATTATAACTAATAACTAGCGGAGTCACCTAGTGCAG,18300 fluorescence intensity (a.u.)
15,TATCATTTGATTTATTGTTAAATATTTGATTCATTGTTAACGGAGTCACCTAGTGCAG,7440 fluorescence intensity (a.u.)
16,CCATTGATTGCTGCAGTTCAGCGTAGCCCCGTCGTTCAAGCGGAGTCACCTAGTGCAG,39600 fluorescence intensity (a.u.)
17,GATAATTTTGATATGGTAATTGCTTAGGTTGTGCATAGCTCGGAGTCACCTAGTGCAG,47600 fluorescence intensity (a.u.)
18,TGGAATTCATCTAATTATATCATTTTCCTCCATACTAGCTCGGAGTCACCTAGTGCAG,3430 fluorescence intensity (a.u.)
19,GTCATTCTAATTATATCGTTATATTCATTATAATTATTTTCGGAGTCACCTAGTGCAG,8450 fluorescence intensity (a.u.)
20,CATACTACCAACCAATTAGTGCTAATAGGTAGCATTTTCTCGGAGTCACCTAGTGCAG,5850 fluorescence intensity (a.u.)
21,TGGTATTTAATTATTTGTTAGAGTCATCATTGGTCTATAACGGAGTCACCTAGTGCAG,8940 fluorescence intensity (a.u.)
22,TCTAGCTATTAATTTGCTCTCATTTATAACTTAGCCGCTACGGAGTCACCTAGTGCAG,6390 fluorescence intensity (a.u.)
23,TGTTAATCAACAAATCAATTTTAATTAGGGCTTTGTTCGACGGAGTCACCTAGTGCAG,46800 fluorescence intensity (a.u.)
24,ATCTATCATTAACTCTCTGATTACCAGTACTAGCGCACTACGGAGTCACCTAGTGCAG,19000 fluorescence intensity (a.u.)
25,TATCTAATTGCGAGAGTGAGCGTGAGCGTAGCCGGCCTTGCGGAGTCACCTAGTGCAG,11400 fluorescence intensity (a.u.)
26,AATAAATGGAGTTTTGTATAATCTGGTCGCCATCAGAGAACGGAGTCACCTAGTGCAG,4460 fluorescence intensity (a.u.)
27,TCCTAAAACGATAATTTTGTCAAATTTTCGGGGTTATTAGCGGAGTCACCTAGTGCAG,6660 fluorescence intensity (a.u.)
